Read counts are not given, so values of variants with three or more changes are uncertain.
B1: LINE1-full (parent)
chain: UACGUAGGUGGUUUUCCCCUGAUAGUGCUAAGGGGGCCUGGAAGUUUGGACUGGGCAGAGCUCAACACAGCGUGGCAAAGUGGCUGUGGCUAGACUGCCUCUCUGGAUUCCUCGUCACUCAGCAGGGCAUCUCUGAGAGAAAUGCC

Variants of: B1
Assay: self-cleavage, relative activity (ratio to wild type); higher = more cleavage; in vitro, sequencing; the parent is a self-cleaving ribozyme
UACGUAGGUGGUUUUCCCCUGAUAGUGCUAAGGGGGCCUGGAGGUUCGGACUAGGCAGAGCUCAACACAGCGUGGCAAAGUGGCUGUGGCUAGACUGCCUCUCUGGAUUCCUCGUCACUCAGCAGGGCAUCUCUGGGAGAAAUGCC showed a self-cleavage of 1.45.
With UACGUAGGCGGAUUUCCCCUGAUAGUGCUAAGGGGGCCUGGAAGUUUGGACUGGGCAGAGCUCAACACAGCGUGGCAAAGUGGCUGUGGCUAGACUGCCUCUCUGGGUUCCUCGUCACUCAGCAGGGCAUCUCUGAGAGAAGUGCC the self-cleavage was 1.21.
Work on UACGUAGGCGGUUUUCCCCUGAUAGUGCUAAGGGGGCCUGGAAGUUAGGACUGGGCAGAGCUCAACACAGCGUGGCAAAGUGGCUGUGGCUAGACUGCCUCUCUGGAUUCCUCGUCAUUCAGCAGGGCAUCUCUGAGAGAAAUGCC yielded a self-cleavage of 1.07.
With UACGUAGGUGGUUUUCCCCUGAUAGUGCUAAGGGGGCCUGGAAGUUGGGACUGGGCAGAGCCCAACACAGCGUGGCAAAGUGGCUGUGGCUAGACUGCCUCCCUGGAUUCCUCGUCACUCAGCAGGGCAUCUCUGAGAGAAAUGCC the self-cleavage was 0.06.
In the case of UACGUAGGUGGUUUACCCCUGAUAGUGCUAAGGGGGCCUGGAAGUUUGGACUGGGCAGAGCUCAACACAGCGUGGCAAAGUGGCUGUGGCUAGGCUGCCUCUCUGGAUUCCUCGUCACUCAGCAGGGCAUCUCUGAGAGAGAUGCC, the self-cleavage is reported as 0.06.
AACGUAGGUGGUAUUCCCCUGAUAGUGCUAAGGGGGCCUGGAAGUUUGGACAGGGCAGAGCUCAACACAGCGUGGCAAAGUGGCUGUGGCUAGACUGCCUCUCUGGAUUCCUCGUCACUCAGCAGGGCAUCUCUGAGAGAAAUGCC gave a self-cleavage of 0.68.
With UACGUAGGUGGUUUUCCCCUGAUAGUGCUAAGGGGGCCUGGAAGUUUGGACUGGGCAGAGCUCAACACAGCGUGGCAAAGAGGCUGUGGCUAGACAGCCUCUCUGGAUUCCUCGCCACUCAGCAGGGCAUCUCUGAGAGAAAUGCC the self-cleavage was 0.08.
With UACGUAGGUGGUUUUCCCCUGAUAGUGCUAAGGGGGCCUGGAAGUUUGGACUGGGCAGAGCUCAACACAGCGUGGCAAAGUGGCUGUGGCUAGACUGCCUCUCUGGAUUCCCCGUCACUCGGCAGGGCAUCUCUGAGAGAGAUGCC the self-cleavage was 1.87.
Variant UACGUAGGUGGUUUUCCCCUGAUAGUGCUAAGGGGGCCUGGAAGUUUGGACUGGGCUGAGCUCAACACAGCGUGGCAAAGUGGCUGUGGCUAGACUGCCUCUCUGGAUUCCUCGUCACUCAGCCGGGCAUCACUGAGAGAAAUGCC has a self-cleavage of 0.07.
UACGUAGGUGGUUUCCCCCUGAUAGUGCUAAGGGGGCCUGGAAGUUUGGACUGGGCAGAGCUUGACACAGCGUGGCAAAGUGGCUGUGGCUAGACUGCCCCUCUGGAUUCCUCGUCACUCAGCAGGGCAUCUCUGAGAGGAAUGCC showed a self-cleavage of 0.
With UACGUGGGUGGUUUUCCCCUGAUAGUGCUAAGGGGGCCUGGAAGUUUGGACUGGGCGGAGCUCAACACAGCGUGGCAAAGUGGCUGUGGCUAGACUGCCUCUCUGGACUCCUCGUCACUCAGCGGGGCAUCUCUGAGAGGAAUGCC the self-cleavage was 0.
UACGUAGGUGGUCUUCCCCUGAUAGUGCUAAGGGGGACUGGAAGUUUGGACUGGGCAGAGCUCAACACAGCGAGGCGAAGUGGCUGUGGCUAGACUGCCUCUCUGGAUUCCUCGCCACUCAGCAGGGCAUCUCUGAGAGAAUUGCC showed a self-cleavage of 1.24.
UACGUAGGUGGUUUUCCCCUGAUAGUGCUAAGGGGGCCUGGAAGGUUGGACUGGGCAUAGCUCAACACAGCGUGGCAAAGUGGCUGUGGCUAGACUGCCUCUCUGGAUUCCACGUCACUCAGCAGGGCAUCUCUGAGAGAAAUGCC showed a self-cleavage of 0.03.
Work on UACGUAUGUGGUUUUCCCCAGAUAGUGCUAAGGGGGCCUGGAAGUUUGGACUGGGCAGAGCUCAACACCGCGUGGCAAAGUGGCUGUGGCUAGACUGCCUCUCUGGAUUCCUCGACACUCAGCAGGGCAUCUCUGAGAGAGAUGUC yielded a self-cleavage of 0.05.
Variant UACGUAGGUGGUUUUCCCCUGAUAGUGCUAAGGGGGCCAGGAAGUUUGGACUGGGCGGGGCUCAACACAGCGUGGCAAAGUGGCUGUGGCUAGACUGCCCCUCUGGAUUCCUCGUCACUCAGCAGGGCAUCUCUGAGAGAAAUGCC has a self-cleavage of 0.16.
For UACGUAGGUGGUUAUCCCCUGAUAGUGCUAAGGGGGCCUGGAAGAUUGGACUGGGCAGAGCUCAACACAGCGUGGCAAAGUGGCUGUGGCUAGACUGCCUCUCUGGAUUCCUCGUCACUCAGGAGGGCAUCACUGAGAGAAAUGCC, the self-cleavage was 1.05.
UACGUAGGUGGUUUACCCCUGAUAGUGCUAAGGGGGCCUGGAAGUUUGGACUGGGCAGAGCUCAACACAGCGUGGCGAAGUGGCUGUGGCUAGACUGCCUCUCUGGAUUCCUCGUCACUCAGCAGGGCAUCGCUGAGAGAAAUGCC showed a self-cleavage of 0.49.
In the case of UACGUGGGUGGUUUUCCCCUGAUAAUGCUAAGGGGGCCUGGAAGUUUGGACUGGGCAGAGCUCAACACAGCGUGGCAAAGUGACUGUGGCUAGACUGCCUCUCUGGAUUCCUCGUCACUCAGCAGGGCAUCUCUGAGAGAAAUGCC, the self-cleavage is reported as 0.41.
UACGUAGGUGGUUUUCCCCUGAUAGUGCUAAGGGGGCCUGGAAGUUUGGAUUGGGCAGAGCUCAACACAGCGUGGCAAAGUGGCUGUGGCUAGACUGCCUCUCUGGAUUCCCCGUCACUCAGCAGGGCAUCUCUGAGGGAAAUGCC showed a self-cleavage of 1.6.
For UACGUAGGUGGCUCUCCCCUGAUAGAGCUAAGGGGGCCUGGACGUUUGGACUGGGCAGAGCUCAACACAGCGUGGCAAAGUGGCUGUGGCUAGACUGCCUCUCUGGAUUCCUCGUCACUCAGCAGGGCAUCUCUGAGAGAAAUGCC, the self-cleavage was 0.81.
UACGUAGGUGGUUUUCCCCUGAUAGUGCUAAAGGGGCCUGGAAGUUUGGGCUGGGCAGAGCUCAACACAGCGUGGCAAAGUGGCUGUGGCUAGACUGCCUCUCUGGAUUCCUCGUCACUCAGCAGGGCGUCUCUGAGAGAAAUGCC gave a self-cleavage of 0.89.
In the case of UACGUAGGUGGUUUUCCCCUGAUAGUGCUAAGGGGGCCUGGAAGUUUGGACUGGGCAGAGCUCAACACAGCGUGGCAAAGUGGCUGUGGCUAGGCUGCCUCUCUGGGUUCCCCGUCACUCAGCAGGGCAUCUCUGAGGGAAAUGCC, the self-cleavage is reported as 0.77.
For UACGAAGGUGGUUUUCCCCUGAUAGUGCUAAGGGGGCCUGGAAGUUUGGACUGGGCAGAGCUCAACACAGCGCGGCAAAGUGGCUGUGGCUAGACUGCCUCUCUGGAUUCCUCGUCACUCAGCUGGGCAUCUCUGAGAGAAAUGCC, the self-cleavage was 0.82.
With UACGAAGGUGGUUUUCCCCUGAUAGUGCUAAGGGGGCCUGGAGGUUUGGGCUGGGCAGAGCUCAACACAGCGUGGCAAAGUGGCUGUGGCUAGACAGCCUCUCUGGAUUCCUCGUCACUCUGCAGGGCAUCUCUGAGAGAAAUGCC the self-cleavage was 0.22.
UACGUAGGUGGUUUCCCCCUGAUAGUGCUAAGGGGGCCUGGAAGUCUGGACUGGGCAGAGCUCAACACAGCGUGGCAAAGUGGCUGUGGCUAGACUGCCUCUCUGGAUUCCUCGUCACUCAGCAGGGCAUCUCCGAGAGAAAUGCC showed a self-cleavage of 2.83.
With UACGUAGGUGGUUUUCCCCUGAUAGUGCUAAGGGGGCCCGGAAGUCUGGACUGGGCAGAGCUCAACACAGCGUGGCAAAGUGGCUGCGGCUAGACUGCCUCUCUGGAUUCCUCGUCACUCAGCAGGGCAUCUCUGAGAGAAAUGCC the self-cleavage was 0.
For UACGUAGGUGGGUUUCCCCUGAUAGUGCUAAGGGGGCCUGGAAGUUUGGACUGGGCAGAGCUCAACACAGCGUGGCAAAGUGGCUGUGGCCUGACUGCCUCUCUGGAUUCCUCGUCACUCAGCAGGGCAUCUCUGAGAGAAAAGCC, the self-cleavage was 0.31.
With UACGUAGGUGGUCUUCCCCUGAUAGUGCUAAGGGGGCCUGGAAGUUUGGACUGGGCAGAGCUCAACACAGCGUGGCAAAGUAGCUGUGGCUAGACUGCCUCUCUGGAUUCCUCGUCACUCAGCAGGGCAUCUCUGAGAGAAAAGCC the self-cleavage was 0.88.
With UACGUAGGUGGUUUUCCCCUGAUAGUGCUGAGGGGGCCUGGAAGUUAGGACUGGGCAGAGCUCAACGCAGCGUGGCAAAGUGGCUGUGGUUAGACUGCCUCUCUGGGUUCCUCGUCUCUCAGCAGGGCUUCUCUGAGAGAAAUGCC the self-cleavage was 0.13.
For UACGUAGGUGGUUUUCCCCUGAUAGUGCUAAGGGGGCCUGGAAGUUUGGACUGGGCAGAGCUCAGCACAGCGUGGCAAAGUGGCUGUGGCUAGACUGCCUCUUUGGAUUCCUCGUCACUCAGCAGGGCACCUCUGAGAGAAAUGCC, the self-cleavage was 0.04.
In the case of UACGUAGGCGGUUUUCCCCUGAUAGUGCUAAGGGGGCCUGGAAGCUUGGACUGGGCAGAGCUCAACACAGCGUGGCAAAGUGGCUGUGGCUAGACUGCCUCUCUGGAUUCCUCGACACUCAGCAGGGCAUCUCUGUGAGAAAUGCC, the self-cleavage is reported as 0.53.
With UACGUAGGCGGUUUUCCCCUGAUAGUGCUAAGGGGGCCUGGAAGUUUGGACUGGGCAGAGCUCAACACAGCGUGGCAAAGAGGCUGUGGCUAGACUGCCCCUCUGGAUUCCUCGUCACUCAGCAGGGCAUCUCUGAGAGAAAUGCC the self-cleavage was 1.69.
UACGUAGGUGGUUUUCCCCUGAUAGUGCUAAGGGGGCCUGGAAGUUUGGACUGGGCAGAGCUCAAUACAGCGUGGCAAAGUGGCCGUGGCUAGACUGCCUCUCAGGAUUCCUCGUCACUCAGCAGGGCAUCUCUGAGAGAAAUGCC showed a self-cleavage of 0.03.
UACGUAGGUGGUUUUCCCCUGAUAGUGCUAAGGGUGCCUGGAAGUUUGGACUGGGCAGAGCUCAACACAGCGUGGCAAAGUGGCUGUGGCUAGGCUGCCUCUCUGGAUUCCUCGUCACUCAGCAGGGCAUCUCUGAGAGAAUUGCC showed a self-cleavage of 0.23.
Work on UACGUAGGUGGUUUUCCCCGGAUAGUGCUAAGGGGGCCUGGAAGUAUGGACUGGGCAGAGCUCAACGCAGCGUGGCAAAGUGGCUGUGGCUAGACUGCCUCUCUGGAUUCCUCGUCACUCAGCAGGGCAUCUCUGAGAGAAAUGCC yielded a self-cleavage of 0.41.
Work on UACGUGGGUGGUUUUCCCCUGAUAGUGCUAAGGGGGCCUGGAAGUUUGGACUGGGCAGAGCUCAACACAGCGUGGCAAAGUGGCUGUGGCUAGACUGCCUCUCUGGAUUCCUCGUCACUCAGCAGGGCAUCUCUGAGAGAGACGCC yielded a self-cleavage of 0.6.
In the case of UACGUGGGUGGUUUUCCCCUGAUAGUGCUAAGGGGGCCUGGAAGUUUGGACUGGGCAGAGCUCAACACAGCGUGGCAAAGUAGCUGUGGCUAGACUGCCUCUCUGGGUUCCUCGUCACUCAGCAGGGCAUCUCUGAGAGAAAUGCC, the self-cleavage is reported as 1.53.
Work on CACGUAGGUGGUUUUCCCCUGAUAGUGCUAAGGGGGCCUUGAAGUUUGGACUGGGCAGGGCUCAACACAGCGUGGCAAAGUGGCUGUGGCUAGACUGCCUCCCUGGAUUCCUCGUCACCCAGCAGGGCAUCUCUGAGAGAAAUGCC yielded a self-cleavage of 0.12.
For UACGUAGGUGGUUUUCCCCUGAUAGUGCUAAGGGGGCCUGGAAGUUUGGACUGGGCAGAGCUCAACACAGCGAUGCAAAGUGGCUGUGGCUAGGCUGCCUCUCUGGAUUCCUCGUCACUCAGCAGGGCAUCUCUGAGAGAAAUGCC, the self-cleavage was 0.27.

Source: the RNAGym collection of RNA variant scans (doi:10.7554/elife.90254)
